# The full ranking holds about 33,000 sequences; the median of “E-score (-0.5 to 0.5)” is about -0.017, and the highest 2% start at about 0.3. The list shows a part of the results.
# Biological target: T1, Sut1 (UniProt P53032)
# T1 sequence: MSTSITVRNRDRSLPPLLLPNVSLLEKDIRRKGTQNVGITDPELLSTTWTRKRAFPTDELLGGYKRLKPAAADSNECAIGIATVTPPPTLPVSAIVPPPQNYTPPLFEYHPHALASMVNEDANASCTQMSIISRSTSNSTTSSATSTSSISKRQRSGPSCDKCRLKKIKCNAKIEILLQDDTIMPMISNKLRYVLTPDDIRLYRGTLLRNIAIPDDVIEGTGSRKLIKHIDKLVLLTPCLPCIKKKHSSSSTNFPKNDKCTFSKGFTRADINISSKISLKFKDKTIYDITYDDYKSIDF
# Assay: PBM E-score (8-mer binding enrichment) (E-score (-0.5 to 0.5)); higher = stronger / more preferred TF binding; most listed sequences are background and not binding sites
# Conditions: protein concentration: 200 nM; construct: GST-full length
# Outline: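 E-scores (a modified Wilcoxon-Mann-Whitney statistic) were assigned by the Universal PBM Analysis Suite to every ungapped eight-base word pooled with its reverse complement. The input came from universal all-10-mer Agilent arrays made double-stranded by primer extension and probed with GST-tagged yeast transcription factors at about 100-200 nM. Fluorescent anti-GST detected bound protein, and masliner normalised the scans.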
row,Sequence,PBM E-score
1,CTGGGACA,-0.306
2,CCGGCTAA,0.153
3,GTAGCGCA,-0.0393
4,GCGTATTA,0.156
5,TAGCGCAA,-0.00527
6,GGCAAGCC,-0.15
7,AAACTTCT,0.262
8,AATTTGTG,0.0995
9,AAGGACAA,0.0597
10,ACTCCCTA,-0.192
11,CGGCTTAG,-0.066
12,CCTAACAC,0.0782
13,ACGGTCTC,0.00199
14,AGTACGCC,-0.0977
15,GGGTAGTA,-0.0886
16,CACATCAG,-0.0654
17,ATTAGTCG,-0.00629
18,GAAGTCCA,0.0321
19,CCATCGCG,0.117
20,GCATTTAA,0.162
21,CCGAGCAC,-0.00901
22,AGAAGGCA,-0.0832
23,GTCGTCGA,-0.244
24,CACCCGAA,0.107
25,AATGCCGA,0.0757

row,Sequence,PBM E-score
1,AGCGCCGC,-0.17
2,ACGAAATG,-0.0185
3,AGCAGAGA,-0.0999
4,GGCGAAAA,0.138
5,ACGTAGGA,0.0207
6,CTTTAGAA,0.199
7,ACGCTGTA,-0.0391
8,CTATAATC,0.0817
9,CTGCCGCA,-0.236
10,TAACTATA,0.178
11,GCGGCAGC,-0.221
12,GCCCAGGA,-0.187
13,AATCGAAT,0.135
14,GACTAGCA,-0.0601
15,GGAGAGAC,0.125
16,ATAAAGAT,0.328
17,ACTTAGAC,0.174
18,GCCCTACA,-0.0427
19,AGCTTGTA,0.058
20,ACTGTAAG,0.189
21,ACTTAAAT,0.169
22,CGCCCACC,-0.181
23,TCGTAGCA,-0.0446
24,GTGTTAAC,-0.0281
25,TATAGTGA,0.121

row,Sequence,PBM E-score
1,ACTTAGTC,-0.144
2,CACGGAAC,0.202
3,GCATCTAA,0.158
4,AGAAAGGC,-0.054
5,CGTATAGA,0.125
6,TCTAGCAA,0.126
7,CGTCCTTC,-0.0411
8,ATGGGAAC,-0.0636
9,ATTCCGAA,0.378
10,CCCTATCG,-0.224
11,ATAGCGGG,-0.0741
12,CCTACCAC,-0.236
13,CATCATAG,0.107
14,GGACACAA,0.0694
15,CAGTCGCG,-0.119
16,ATGCTCAA,-0.0662
17,ATCACTGG,-0.0543
18,CACGTTTC,0.0143
19,ATCTTGCG,0.0128
20,ACGCAGTA,0.0511
21,CTCTGCTA,-0.228
22,CCGTGAGA,-0.175
23,GGATGTCA,0.102
24,CCACGCCA,-0.0694
25,GCTGGTAC,-0.118

row,Sequence,PBM E-score
1,ACGCGGAC,0.302
2,CTTGTAGC,-0.0491
3,AGCCCCCT,-0.226
4,GTCGTAGA,0.0683
5,ACTAGCAA,-0.00525
6,CGTGGTGA,-0.15
7,CCACACAA,0.077
8,CATCCAGA,-0.184
9,ACCCGATA,-0.104
10,AGCCCACT,-0.148
11,CGGCGCGA,-0.0164
12,AGGATGAT,-0.0348
13,ACCGGATG,0.00862
14,GGCATCCC,-0.236
15,GGCTCAGA,0.0135
16,CGACGCGA,-0.133
17,ACGGTGCT,-0.0392
18,CGGCAAGA,-0.0505
19,CCGGGTCG,-0.079
20,GGCACTAA,0.0491
21,ACATCCAC,0.08
22,AGCCGTCC,0.0505
23,GGTGCTGA,-0.119
24,AATGGTAC,0.129
25,AAAAATAG,0.27

row,Sequence,PBM E-score
1,ACTTTGAT,0.0105
2,GAGTGTTA,0.109
3,AAAGTACA,0.107
4,TCTGATCA,-0.154
5,GAGGGCTA,-0.234
6,GAGCATCA,0.0861
7,TCTCGCAA,0.0389
8,GCTTTTCC,0.0525
9,CAACCTTC,0.0437
10,AGTAAGCA,-0.0193
11,CTATGCGC,-0.148
12,AGCTCCTA,-0.173
13,CCTGACAA,-0.147
14,CGAACGAC,0.0205
15,CCAGGGTC,-0.265
16,TACGGCAA,-0.0263
17,AGGCTGTC,-0.137
18,CCCGCATC,-0.0615
19,GATCCGCA,-0.225
20,ACCTGTAC,-0.0416
21,ATTCCAGG,-0.0249
22,AACCCCAA,-0.0115
23,GATAAGTA,0.189
24,AGACCTCG,-0.0853
25,CCCGTCCA,-0.198

row,Sequence,PBM E-score
1,AAGCGATT,0.0402
2,GAATGGTC,-0.0614
3,ACAATGGT,-0.137
4,CCATAGTC,-0.176
5,CCGCGTGA,0.0524
6,CTTCGGGA,-0.00189
7,AGCCGACG,-0.132
8,TCAAGCAA,0.0551
9,CGAGATCA,0.122
10,CATTGCCA,-0.0454
11,CCACTCCA,-0.174
12,ACTTCGTG,-0.114
13,AGCTACAT,-0.136
14,ACGCGGCT,-0.0648
15,TATCGTCA,-0.16
16,CGAAAATC,0.252
17,AGTACCTG,0.0244
18,CCATTCTA,0.0575
19,GACGTAAA,-0.0834
20,ACACCGGA,0.343
21,GCCTGCGC,-0.241
22,ACTTTCAA,0.257
23,GTAACCAA,0.116
24,GATAAGAC,-0.101
25,CAGTGAAC,-0.0239

row,Sequence,PBM E-score
1,GCTGCGTA,-0.134
2,GCGCGGAA,0.15
3,CAGGTGTA,-0.129
4,GAGACGCA,-0.0137
5,GTCCAATA,0.106
6,GAAGGGCC,-0.131
7,AAGAAAAT,0.257
8,CGCAATCA,0.149
9,CAGGTACG,-0.227
10,CTATAAGC,-0.0415
11,GAGACATC,-0.0485
12,GACTACTA,0.107
13,ATGGCTAC,0.0799
14,CAAGCGTC,-0.147
15,AGGCGGGA,-0.208
16,CATGCGGG,-0.175
17,GCAAGTCC,0.109
18,AACATGCC,0.0872
19,ATTACCAA,0.0498
20,CCGCTACA,-0.107
21,GGTACCCA,-0.19
22,AAGGGCCG,-0.146
23,CTCGGGCA,-0.0064
24,ATGACTCC,0.241
25,CGAGCCGA,-0.184

row,Sequence,PBM E-score
1,AGACCATA,0.00939
2,CTTAGTGA,0.0413
3,CTCTCCTC,-0.374
4,ACCCGCGG,0.0784
5,CGTTCTAC,-0.0333
6,AGAAAGCC,0.0582
7,AAAGGGAT,0.0685
8,AGCCTCGA,-0.185
9,GCTTACAA,0.0636
10,AGTCACCG,-0.192
11,TACCCGCA,0.0402
12,CAATGGAG,-0.0112
13,CAAGAAAA,0.24
14,AGCAGCCA,-0.21
15,TAATGTAA,0.28
16,AGAAACCC,0.0854
17,CCCTGAAG,-0.263
18,GACTTGAA,0.274
19,CCCTGGGA,-0.325
20,CAACTACA,0.181
21,ATGTACCA,0.0648
22,GCCAGCCA,-0.233
23,CGGTGGAC,-0.0934
24,CCTCCTCC,-0.0996
25,GATGTGAC,-0.0732

row,Sequence,PBM E-score
1,CACTCGAG,-0.0559
2,GATCGATC,-0.383
3,GACATGGA,-0.023
4,CCTGGAGA,-0.172
5,CCCCATAC,-0.232
6,CCTTGTAC,0.02
7,AGTTTTGG,0.147
8,AGCTCAGG,-0.0171
9,CGTGGTAG,-0.156
10,AAATCCGA,0.203
11,GTGACCTA,-0.0607
12,CGCTGATC,0.0462
13,AGCAATTG,0.175
14,ACGCAGCT,-0.137
15,GCGGTCTA,-0.0531
16,CCAAGGTC,-0.0187
17,CATCCAGG,-0.172
18,GGAACCAC,-0.147
19,AGCGTATA,0.0766
